Experimental findings from PubChem BioAssay AID1240 (Sanford-Burnham Center for Chemical Genomics, 2008) are described below.

Among all 50,000 compounds or so, about 800 (1.6%) showed an effect of 50% or more. The list shows a part of the results.

For this experiment, the target named is Bcl-2-like protein 10 (Homo sapiens) (UniProt Q9HD36). As to the kind of experiment: TR3 peptide-Bcl-B binding displacers, biochemical primary FP assay, phenotype converters (AID 1240).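 Also: 0% = Bcl-B with tracer peptide and DMSO and 100% = tracer peptide lacking Bcl-B.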 The settings on record: GST-Bcl-B / FITC-TR3 peptide fluorescence polarization; stronger effect = higher value; compound at 3.75 mg/L.
Sequence of UniProt Q9HD36 (Q9HD36 whole entry, looked up): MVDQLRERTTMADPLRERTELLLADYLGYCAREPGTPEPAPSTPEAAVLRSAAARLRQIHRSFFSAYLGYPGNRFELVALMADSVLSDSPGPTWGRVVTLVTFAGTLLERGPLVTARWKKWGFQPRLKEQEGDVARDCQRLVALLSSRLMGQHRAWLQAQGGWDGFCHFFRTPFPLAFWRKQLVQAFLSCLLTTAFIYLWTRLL
`Cc1cccc(NC(=O)CSc2nccn2C)c1C`: the displacement turned out to be 0%.
For `COc1ccc(/C=C/C(=O)Nc2cc3nn(-c4ccc(C)cc4)nc3cc2C)cc1`, the displacement came out at 10.7%.
The result for `COC(=O)C1=C(C)N(c2cccc(OC)c2)C(=O)/C1=C\c1ccccc1F` reads 4.7%; that for `Cc1c(Cl)cccc1-n1ncnc1-c1ccc(Br)cc1`, 9.5%; that for `NC(=O)c1c(NC(=O)CCCC(=O)O)sc2c1CCCCC2`, 10.4%.
With `Cc1c(C2(c3c(C)n(C)n(-c4ccccc4)c3=O)C(=O)Nc3ccccc32)c(=O)n(-c2ccccc2)n1C` the figure was -0.2%; with `O=C(NCC1CCCO1)c1ccccc1Cl` (stereo not given), -6.7%; with `O=C(CSc1cc(Cl)ccc1Cl)Nc1cccc([N+](=O)[O-])c1`, 11.6%.
The result for `O=C1CCC(c2ccccc2)N1C(=O)c1cccnc1` (stereo not given) reads -8%.
Consider `O=C1C=C(C(F)(F)C(F)(F)F)Nc2ccccc2N1`, for which the displacement was -1.6%.
With `O=C(CN(c1ccc(F)cc1)S(=O)(=O)c1ccccc1)Nc1cc(Cl)cc(Cl)c1`, the displacement worked out at 2.9%.
The result for `O=C(COc1ccccc1Cl)NNC(=O)c1cc2ccccc2cc1O` reads -29.5%; that for `N#C/C(=C/c1ccccc1[N+](=O)[O-])C(=O)Nc1ccc(Cl)cc1`, -3.7%; that for `CCOC(=O)c1ccc(Nc2nnc(-c3ccccc3)c3ccccc23)cc1`, -6.6%.
The result for `Cc1ccc2cc(NC(=O)c3cccc(F)c3)ccc2n1` reads 5.2%; that for `O=C(CNc1n[nH]c(=O)[nH]c1=O)N/N=C/c1c(Cl)cccc1Cl`, -10.1%; that for `Cc1ccc(C(=O)NC=C(C#N)C#N)cc1`, 5.5%.
`N/C(=N\OC(=O)c1ccc(Cl)cc1)c1ccc(Br)cc1`: the displacement worked out at 15.5%.
The result for `O=C(NC(NC(=S)Nc1c(Cl)cccc1Cl)C(Cl)(Cl)Cl)c1ccccc1` (stereo not given) reads -4.5%; that for `CCOC(=O)C1=C(C)N=c2s/c(=C\c3ccc(N(C)C)o3)c(=O)n2C1c1ccc(F)cc1` (stereo not given), -22.6%; that for `COc1cc(NC(=O)COc2ccccc2C)cc(OC)c1`, 4.1%.
The result for `Cc1ccccc1N1C(=O)c2cccc3c(C(=O)O)ccc(c23)C1=O` reads -0.9%; that for `Cn1cc(N)c(C(=O)Nc2ccc3c(c2)C(=O)NC3=O)n1`, 5.6%; that for `O=C(Nc1ccc(O)cc1C(=O)O)c1ccccc1Br`, 11.4%.
With `CCc1c(C)sc(NC(=O)C(C)Oc2cccc(Cl)c2)c1C#N` (stereo not given) the figure was -27.5%; with `C=CCN1C(=O)/C(=C\c2ccc(-c3ccc([N+](=O)[O-])cc3Cl)o2)C(=O)NC1=S`, 21%.
Consider `O=C(Nc1cccc(F)c1)c1cc(S(=O)(=O)N2CCCCC2)ccc1Cl`, for which the displacement is -0.1%.
The result for `CCCCOc1ccc(NC(=O)CSc2nnc(N)s2)cc1` reads -16.9%.
The result for `NS(=O)(=O)c1cccc(NC(=O)c2cccc3c(Br)cccc23)c1` reads -11.9%; that for `Cc1cccc(NC(=O)c2cc3c(ccc4ccccc43)oc2=O)n1`, -7%; that for `CSc1ccccc1NC(=O)CC1Nc2ccccc2NC1=O` (stereo not given), -0.2%.
With `O=C(O)CCCCCN1C(=O)C(=O)/C(=C(/O)c2ccccc2)C1c1ccc(Cl)cc1` (stereo not given) the figure was 3%.
For the compound `Cc1ccccc1C(=O)N/N=C/c1ccc(Sc2nnnn2-c2ccccc2)o1`, the displacement is -23.6%.
With `O=C(Nc1ccccn1)C(=O)NC1CCCCC1` the figure was 9.2%; with `Cc1c(Cl)ccc2c(N=Nc3ccccn3)c(O)[nH]c12`, 9.3%; with `COCCCNC(=O)COc1cccc(C)c1`, 13%.
With `Cc1cc([N+](=O)[O-])ccc1N=Cc1ccc(O)cc1O` the figure was -27.9%; with `COc1ccc2[nH]c(C)c(CCC(C)=O)c(=S)c2c1`, 13.6%; with `c1ccc(-c2cc(-c3nc4ccccc4[nH]3)c3ccccc3n2)cc1`, 11.8%.
Consider `COCCN1C(=O)/C(=C\c2ccc(N(C)C)cc2)C(C(=O)OC)=C1C`, for which the displacement came to 11.7%.
With `CCCOc1ccc(C(=O)Nc2ccccc2C(=O)O)cc1`, the displacement is 11.6%.
The result for `CCN(CC)C(=O)CN1C(=O)C(=O)c2ccccc21` reads 3.9%.
As for `Nc1ccc(-c2nc3cc(N)ccc3s2)cc1`, the displacement is -4.1%.
With `COC(=O)c1cn(C(=O)c2ccc(C)c([N+](=O)[O-])c2)c2ccccc12` the figure was -2.1%; with `O=C(c1ccccc1)N1CCN(C(=O)c2nn3c(C(F)(F)F)cc(-c4cccs4)nc3c2Br)CC1`, 11.9%; with `COc1ccccc1OCCOc1ccc(/C=C2/C(=O)NC(=O)N(c3ccccc3C)C2=O)cc1OC`, 76.2%.
The result for `N#CC(C#N)=Cc1ccc(-c2ccc(Cl)c(C(=O)O)c2)o1` reads 0.6%; that for `CN(C)CCN(Cc1ccccc1)c1ccnc(N(C)C)c1C#N`, 6.2%; that for `CCOC(=O)CCCSc1nc2sc(C)c(C)c2c(=O)n1-c1ccccc1`, -8%.
With `CCCN1C(=O)c2ccccc2NC1c1ccc(OC)c(COc2ccc([N+](=O)[O-])cc2)c1` (stereo not given), the displacement turned out to be 14.7%.
For the compound `c1ccc(OCCCCN2CCCC2)cc1`, the displacement was -5.9%.
With `COc1ccc(CCNC(=O)C2CC2)cc1OC` the figure was 0.7%; with `Fc1ccc(Br)cc1C1Nc2cccc3cccc(c23)N1`, 13.8%; with `Cc1ccc(CC(C)CC(=O)NCCc2ccc3c(c2)OCO3)cc1` (stereo not given), 12.2%.
Turning to `O=C(N/N=C\c1ccc(OC(=O)c2cccc3ccccc23)cc1)c1ccc(Br)cc1`, the displacement turned out to be 7.8%.
With `CCCC(=O)N1CCN(c2ccc(C(C)=O)cc2F)CC1` the figure was -7.8%; with `Cc1ccc(C(=O)Nc2cccc(C(=O)O)c2)cc1S(=O)(=O)NCc1ccccc1`, -5.9%; with `COc1cc(C(=O)NCCOc2cc(C)ccc2C(C)C)cc(OC)c1OC`, -14.3%.
With `CC(C)(C)C1(O)CC(C(F)(F)F)=NN1C(=O)COc1ccccc1` (stereo not given) the figure was -7.4%; with `CC(=O)Oc1ccc2c(oc(=O)c3ccccc32)c1C`, -5.1%.
With `CCC(=O)Oc1cc2oc(CC)c(-c3nc(C)cs3)c(=O)c2cc1CC` the figure was 6.6%.
Take `CC1=NN(c2cccc(Cl)c2)C(=O)/C1=C/C=C/c1cccc([N+](=O)[O-])c1`: the displacement came to 13.6%.
The result for `COc1ccc(Br)cc1/C=C/C(=O)Nc1cccc(S(N)(=O)=O)c1` reads 8.1%; that for `CCOC(=O)CN1CC(O)=C(C=NCc2ccccc2)C1=O`, 2.8%.
The result for `COc1ccccc1OCCOc1ccc(Br)cc1/C=C1/SC(=S)N(C)C1=O` reads 14.4%; that for `COc1ccc(Cl)cc1N(CC(=O)N1CCN(c2ccccc2)CC1)S(=O)(=O)c1ccccc1`, -3.8%; that for `O=C(Nc1cccc(-c2cn3ccccc3n2)c1)c1cccc(Br)c1`, 11.7%.
The result for `N#CCCn1cc(/C=C2/NC(=S)N(c3ccc(-c4ccccc4)cc3)C2=O)c(-c2ccccc2)n1` reads -42%; that for `C=CCOc1ccc(Cl)cc1/C=C1/C(=N)N2N=C(CCC)SC2=NC1=O`, -25.3%; that for `O=C(CCc1ccccc1)NCc1ccc(F)cc1`, -1.3%.
